In PubChem BioAssay AID1452 (National Center for Advancing Translational Sciences (NCATS), 2008):
In all, about 150,000 compounds went through this assay and about 190 (0.13%) were called active. Inconclusive results (about 2%) are left out. Calls come from the whole dose curve; as a rule, active = well fitted inhibition curve with a large enough effect; inconclusive = small, poorly fitted or top-dose-only effect; inactive = flat fitted curve, though single readings scatter. Only a part is listed here, and it is no random draw.

What follows are compounds tested against Polyunsaturated fatty acid lipoxygenase ALOX12 (Homo sapiens) (UniProt P18054) (assay: qHTS Assay for Inhibitors of 12-hLO (12-human lipoxygenase)). Settings: purified 12-hLO, xylenol orange hydroperoxide absorbance; series mostly up to 57.1 µM; activity change, negative = inhibition: at the top concentration.
Description: Assay Provider: Holman, T.R., University of California, Santa Cruz Screening Center PI: Austin, C.P. Screening Center: NIH Chemical Genomics Center [NCGC] Human lipoxygenase 12hLO is a member of the closely related lipoxygenase family of enzymes which catalyze the site-specific oxidation of arachidonic acid to various hormone precursor molecules and as such is a candidate for drug development in a variety of disease areas, such as cancer and inflammation. Inhibition of 12hLO activity was screened by utilizing arachidonic acid as a substrate. The extent of hydroperoxide product formation was measured by a secondary chromogenic reaction in which xylenol orange (XO, Sigma-Aldrich, cat. number 39,818-7) reacts with the ferric ions produced from the reaction between the hydroperoxide and ferrous ions. The Fe(III)-XO complex is characterized with red-shifted absorbance at 560 nm. A purified preparation of human 12hLO was supplied by Professor Ted Holman, University of California, Santa Cruz.
Assay Protocol: Buffer: 25 mM Hepes pH 7.0, 0.01% Triton X-100. Reagents/Controls: Buffer in columns 3 and 4 as negative control (no enzyme). Substrate solution: 40 uM arachidonic acid (Sigma-Aldrich, St. Louis, MO) final concentration dispensed throughout the plate. Enzyme: 150 nM 12hLO final concentration in columns 1, 2, 5-48. Column 1 is neutral (100% activity). Column 2 contained pin-transferred titration of NDGA (nordihidroguaiaretic acid, Sigma-Aldrich, N 5023, top concentration 20 mM in DMSO, then 1:3 dilution in duplicate). (Dilution factor: 23 nL into 4 uL.) Chromogenic detection reagent (divalent iron/xylenol orange, Fe-XO): 200 uM xylenol orange plus 300 uM ferrous ammonium sulfate prepared freshly in 50 mM sulfuric acid. Assay Steps: Three uL of enzyme were dispensed to 1536-well Greiner black clear bottom plates. Compounds and controls (23 nL) were transferred via Kalypsys PinTool. The plates were incubated for 15 min at room temperature, and then 1 uL of substrate solution was added to start the reaction. After room temperature incubation for 30 minutes, 4 uL of Fe-XO solution was added to each well and the plates were incubated for 30 min. The absorbance at 405 and 573 nm were measured using ViewLux (Perkin-Elmer) High-throughput CCD imager and absorbance protocol settings. The 573-to-405 absorbance ratio was used to compute reaction progress.
% is set by controls: 0 for no effect and ±100 for the full control effect; potency is the fitted concentration of half-maximal effect.
Note: nearly all actives have a fitted effect of over 55% in size.

Chain of UniProt P18054 (P18054 whole entry, looked up): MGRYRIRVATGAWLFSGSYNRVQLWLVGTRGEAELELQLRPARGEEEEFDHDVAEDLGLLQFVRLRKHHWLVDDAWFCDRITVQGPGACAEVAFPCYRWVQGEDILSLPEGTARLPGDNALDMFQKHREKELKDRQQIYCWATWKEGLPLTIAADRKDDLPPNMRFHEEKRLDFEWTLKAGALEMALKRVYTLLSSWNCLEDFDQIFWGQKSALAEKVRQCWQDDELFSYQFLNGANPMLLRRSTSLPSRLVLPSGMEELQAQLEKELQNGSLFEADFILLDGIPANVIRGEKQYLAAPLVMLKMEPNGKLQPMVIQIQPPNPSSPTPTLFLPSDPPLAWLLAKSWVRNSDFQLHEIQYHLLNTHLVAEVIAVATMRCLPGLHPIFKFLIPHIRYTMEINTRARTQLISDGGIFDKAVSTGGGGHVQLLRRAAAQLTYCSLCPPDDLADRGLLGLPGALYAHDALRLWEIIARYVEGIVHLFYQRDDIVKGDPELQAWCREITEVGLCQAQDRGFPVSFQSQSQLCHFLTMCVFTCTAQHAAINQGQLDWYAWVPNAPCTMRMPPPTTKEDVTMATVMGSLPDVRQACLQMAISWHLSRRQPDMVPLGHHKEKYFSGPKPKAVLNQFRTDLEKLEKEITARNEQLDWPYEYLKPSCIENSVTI

SMILES	Potency	activity change, negative = inhibition
CC[C@H]1C(=O)OC[C@H]1Cc1cncn1C	inactive	
c1ccc2ncccc2c1		inactive: 0.972%
Oc1cccc2cccnc12	inactive	
CN(C)C(=O)C(CCN1CCC(O)(c2ccc(Cl)cc2)CC1)(c1ccccc1)c1ccccc1	inactive	
CC(C)[C@@]1(NC(=O)[C@@H]2C[C@@H]3c4cccc5[nH]cc(c45)C[C@H]3N(C)C2)O[C@@]2(O)[C@@H]3CCCN3C(=O)[C@H](Cc3ccccc3)N2C1=O		inactive: -7.8%
CC(C)[C@@]1(NC(=O)[C@@H]2C[C@H]3c4cccc5[nH]cc(c45)C[C@@H]3N(C)C2)O[C@@]2(O)[C@H]3CCCN3C(=O)[C@H](Cc3ccccc3)N2C1=O		inactive: -10.1%
C[N+](C)(C)CC#CCN1CCCC1=O		inactive: -6%
CCCCC(=O)N/N=C/c1c(O)n(CC)c(=S)n(CC)c1=O		inactive: -1.13%
CC[C@@H]1C(=O)OC[C@@H]1Cc1cncn1C	inactive	
O=C1CC(c2ccc(O)cc2)Oc2cc(O)cc(O)c21 (stereo not given)	inactive	
CNC(C)[C@H](O)c1ccccc1 (stereo not given in full)		inactive: 1.29%
COC(=O)C1=C(C)NC(C)=C(C(=O)OC)C1c1ccccc1[N+](=O)[O-]	inactive	
CCC1C(=O)OCC1Cc1cncn1C (stereo not given)		inactive: -5.51%
CCC1C(=O)OC[C@H]1Cc1cncn1C (stereo not given in full)		inactive: -4.38%
COc1ccc2c(c[n+](C)c3c4cc5c(cc4ccc23)OCO5)c1OC		inactive: -14.7%
C[C@]12N[C@H](Cc3ccccc31)c1ccccc12		inactive: 1.66%
CC1CCCCN1CC(=O)c1ccc2cc[nH]c2c1 (stereo not given)		inactive: 46.8%
Cc1ccc(/C=C2\C(=O)NC(=O)N(CCc3ccc(F)cc3)C2=O)o1		inactive: -20.5%
CCCCCCCCCCCCCCCC[n+]1ccccc1	inactive	
O=C1C2(Cl)C3(Cl)C4(Cl)C(Cl)(Cl)C5(Cl)C3(Cl)C1(Cl)C5(Cl)C24Cl (stereo not given)		inactive: -20%
CCCCC/C=C\C/C=C\C/C=C\C/C=C\CCCC(=O)NCCc1ccc(O)c(O)c1		inactive: -22.4%
CC(C)[C@@]1(NC(=O)[C@@H]2C[C@H]3c4cccc5[nH]cc(c45)C[C@@H]3N(C)C2)O[C@]2(O)[C@H]3CCCN3C(=O)[C@H](Cc3ccccc3)N2C1=O		inactive: 1.74% [at 25.6 µM]
C[C@H]1O[C@H]1P(=O)(O)O	inactive	
C[C@]12N[C@@H](Cc3ccccc31)c1ccccc12	inactive	
Cc1cc(C)cc(N2C(=O)NC(=O)/C(=C/c3cccn3-c3ccc(Cl)cc3)C2=O)c1		inactive: -3.22%
c1ccc2c(c1)Nc1ccccc1S2	active: 14.1 µM	
CCCCC/C=C\C/C=C\C/C=C\C/C=C\CCCCCC(=O)NCCO	inactive	
Cc1ccccc1		inactive: -2.71%
CNC(C)[C@@H](O)c1ccccc1 (stereo not given in full)		inactive: 3.94%
CC1OC1P(=O)(O)O (stereo not given)		inactive: 0.446%
